# According to PubChem BioAssay AID1240 (Sanford-Burnham Center for Chemical Genomics, 2008):
# In all, about 50,000 compounds went through this assay and about 800 (1.6%) showed an effect of 50% or more. This is one part of the list.
# Molecular target: Bcl-2-like protein 10 (Homo sapiens) (UniProt Q9HD36)
# Experiment: Phenotype converters, Bcl-B/TR3 peptide binding displacement, primary biochemical FP (AID 1240);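 further: 0% = Bcl-B with tracer peptide and DMSO and 100% = tracer peptide lacking Bcl-B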
# Conditions: GST-Bcl-B / FITC-TR3 peptide fluorescence polarization; stronger effect = higher value; compound at 3.75 mg/L
# UniProt Q9HD36, sequence (Q9HD36 whole entry, looked up): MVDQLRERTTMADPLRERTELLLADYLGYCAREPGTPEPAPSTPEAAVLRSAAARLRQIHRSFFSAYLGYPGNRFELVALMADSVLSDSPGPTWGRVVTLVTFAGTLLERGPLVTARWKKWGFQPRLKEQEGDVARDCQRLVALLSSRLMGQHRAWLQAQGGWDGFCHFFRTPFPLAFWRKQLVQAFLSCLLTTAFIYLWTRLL
row,SMILES,displacement
1,O=C(O)c1cnn2c1NC(c1ccc3c(c1)OCO3)CC2C(F)(F)F (stereo unspecified),-2.8%
2,COc1cc(OC)c(C=Nc2cccc(C(N)=O)c2)cc1Br,-7.2%
3,Cc1cc(OCC(=O)NCc2ccc3c(c2)OCO3)ccc1Br,-9.2%
4,COc1cc([N+](=O)[O-])ccc1NS(=O)(=O)c1ccc(F)cc1,14.5%
5,Oc1ccc(/C=N/Nc2cc(N3CCCCC3)nc(N3CCCCC3)n2)c(O)c1,3.2%
6,CC(=O)COc1ccc2c(C)c(C)c(=O)oc2c1,13.2%
7,Cc1ccc(OC(=O)CCN2C(=O)c3ccccc3C2=O)cc1C,-2.2%
8,C=CCSc1nc(N)c(C#N)c(-c2cccs2)c1C#N,3.6%
9,CCN1C(=O)/C(=C\c2ccc(-c3ccc(F)cc3)o2)SC1=S,0.7%
10,CC(=O)NS(=O)(=O)c1ccc(NC(=O)CCc2ccccc2)cc1,7.9%
11,C=CCN1C(=O)NC(=O)/C(=C/c2cc(OC)c(OC(C)=O)c(OC)c2)C1=O,7.4%
12,COc1cc(OC)c(C2NC(=S)NC(C)=C2C(=O)Nc2ccc(Cl)cc2)cc1OC (stereo unspecified),9.6%
13,COc1ccc(OC)c(N(CC(=O)N/N=C/c2ccc(OC3CSC3)cc2)S(=O)(=O)c2ccccc2)c1,7.5%
14,O=C(Cc1n[nH]c(=O)[nH]c1=O)N/N=C/c1ccc(C(F)(F)F)cc1,-4.6%
15,COC(=O)c1ccc(/C=C/C(=O)c2cccs2)cc1,2.9%
16,CC(Oc1ccccc1)C(=O)N1CCN(c2ccc(F)cc2)CC1 (stereo unspecified),0.6%
17,O=C(Nc1ccc(F)c(Cl)c1)c1cnccn1,2.4%
18,CCN(Cc1ccccc1)S(=O)(=O)c1ccc([N+](=O)[O-])cc1,-9.7%
19,O=C1/C(=C/c2ccc(Br)cc2)SC(=S)N1CCc1ccccc1,7.1%
20,COc1ccc(CCNC(=O)C2CCCC2)cc1OC,40.3%
21,COc1cc(OC)cc(C(=O)NC2CCCCCCC2)c1,1.7%
22,COc1ccc(/C=N/NC(=O)C2CC2)c(OC)c1OC,17.7%
23,CCOc1ccc(N2C(=O)NC(=O)/C(=C\C3C(=O)N(c4ccccc4)N=C3C)C2=O)cc1 (stereo unspecified),6%

row,SMILES,displacement
1,CC(=O)Nc1ccc2oc(-c3cccc(Cl)c3)nc2c1,15.2%
2,O=C(CCNc1cccc(C(F)(F)F)c1)c1ccc([N+](=O)[O-])cc1,-10.1%
3,Cc1ccc(OCC(=O)Nc2ccc(S(N)(=O)=O)cc2)c(C)c1,1.9%
4,O=C(NN1CCOCC1)c1ccc(Cl)cc1Cl,2.7%
5,CN(C)C(=S)S/C=C/C(=O)c1ccccc1,-1.8%
6,Cc1ccc2cccc(S(=O)(=O)c3ccc(C(F)(F)F)cc3[N+](=O)[O-])c2n1,-2.5%
7,CC(C)OC(=O)c1c(-c2ccc(Cl)cc2Cl)csc1N,-0.6%
8,O=[N+]([O-])c1ccc(-c2ccc(I)cc2)cc1,5.1%
9,CC1CCN(CCOCCOc2ccccc2F)CC1,-3.8%
10,COc1ccc(/C=C2/SC(=S)N(c3cccc(Cl)c3)C2=O)cc1,44.2%
11,O=C(CCC1CCCC1)Nc1ccc([N+](=O)[O-])cc1,-6.4%
12,c1cncc(CN2CCN(Cc3ccc4ccccc4c3)CC2)c1,-10.9%
13,CCCCOc1ccc(C=O)cc1OCC,-7.3%
14,COc1ccc(NC(=O)COc2ccc(OC)cc2)cc1,-2.8%
15,COc1ccc(-c2nc3sc(C)c(C)c3c(=O)[nH]2)cc1C,-8%
16,CC(C)c1ccc(NC(=O)CN(c2ccc(Oc3ccccc3)cc2)S(C)(=O)=O)cc1,0%
17,COC(=O)c1c(C)oc2ccc(OC(C)=O)cc12,14.1%
18,Cc1ccc2c(c1)c(-c1ccccc1)nc1nnnn12,3%
19,O=C(Nc1ccccc1)Nc1nnc(Cc2ccc([N+](=O)[O-])cc2)s1,-0.3%
20,O=c1[nH]c(/C=C/c2ccc(OCc3ccccc3)cc2)c([N+](=O)[O-])c(=O)[nH]1,114%
21,CC(C)CSc1nc(O)c(C(c2ccccc2)c2ccccc2)c(=O)[nH]1,-0.7%
22,CS(=O)(=O)/N=C(\N)Nc1nc2ccccc2o1,-3.9%
23,CCCOc1cccc(C2C3=C(CC(C)(C)CC3=O)Nc3ccccc3N2C(=O)CC)c1 (stereo unspecified),-16.7%

row,SMILES,displacement
1,COC(=O)C1=C(C)NC2=C(C(=O)c3ccccc32)C1c1ccc(OCc2ccc(F)cc2)c(Cl)c1 (stereo unspecified),-0.8%
2,CCOc1ccc2c(c1)C(C)=CC(C)(C)N2C(=O)Nc1ccccc1,17.4%
3,CCOC(=O)C1=C(O)/C(=C\c2ccccc2OC)N=C1C,3.3%
4,Nc1nnc(SCC(=O)Nc2ccccc2-c2ccccc2)s1,-13.5%
5,COc1ccc(C(=O)NC(NCc2ccccc2)C(Cl)(Cl)Cl)cc1OC (stereo unspecified),3.7%
6,Cc1cc(C)c2oc(-c3ccc(C)c(NC(=O)c4ccc(Br)o4)c3)nc2c1,-3.8%
7,COc1cc(C(=O)Nc2ccc(Cc3ccncc3)cc2)cc(OC)c1OC,14.8%
8,CCOC(=O)c1c(NC(=O)C2CC2)sc(C(=O)Nc2ccccc2)c1C,-4.2%
9,CCOc1cc(C(=S)N2CCOCC2)ccc1OCc1ccccc1,0.7%
10,COc1ccccc1NC(=O)c1cc([N+](=O)[O-])ccc1Br,7.8%
11,O=C(CSc1ccccn1)Nc1ccccc1-c1ccccc1,2.3%
12,COc1ccc(C/C(N)=N/OC(=O)c2cccs2)cc1,8.1%
13,O=C(NC(NC(=S)Nc1cc(Cl)ccc1Cl)C(Cl)(Cl)Cl)c1ccccc1Cl (stereo unspecified),12.7%
14,Cc1ccccc1CN1CCN(C(=O)c2cccc(Cl)c2)CC1,0.5%
15,COC(=O)CN(c1ccc(Cl)cc1C)S(=O)(=O)c1ccc(C)cc1,-3%
16,COc1cc(OC)c(OC)cc1CN1CCN(C(=O)c2ccc(OC)c(OC)c2)CC1,-3.3%
17,CCOc1ccccc1NC(=O)c1ccc(N(Cc2ccc(Cl)cc2)S(C)(=O)=O)cc1,14.1%
18,CC(=O)NCCOc1ccc2oc3ccccc3c2c1,1.1%
19,O=C(/C=C/c1ccc(-c2cccc([N+](=O)[O-])c2)o1)c1ccco1,79.3%
20,O=C1NC(=S)S/C1=C/c1ccc(O)c(Br)c1,-31.6%
21,O=C1/C(=C\c2ccccc2)SC(=S)N1NS(=O)(=O)c1ccccc1,8.8%
22,NS(=O)(=O)c1cccc(NC(=O)c2ccc(-c3ccccc3)cc2)c1,1.4%
23,O=C(CN(c1ccccc1)S(=O)(=O)c1ccccc1[N+](=O)[O-])NCCc1ccccc1,11.3%

row,SMILES,displacement
1,Cc1ccc2cc(C)c(NCCO)nc2c1,7.2%
2,O=C(O)CN1C(=O)/C(=C\c2ccc(OCc3ccc(Cl)cc3)cc2)SC1=S,8.4%
3,CCOC(=O)C1SC(c2ccccc2)C(C#N)C1(O)c1ccccc1 (stereo unspecified),-1.8%
4,CCc1ccc(-c2nc(-c3ccc(F)cc3)no2)cc1,-4.8%
5,COC(=O)c1sccc1NC(=O)/C=C/c1ccc(C(C)(C)C)cc1,-3.1%
6,COc1ccc(-c2nc(Cc3ccc(OC)c(OC)c3)no2)cc1,-8.7%
7,CC(=O)n1cc(/C=C2\N=C(c3cccs3)OC2=O)c(-c2ccccc2)n1,-0.1%
8,O=C(Nc1ccccc1)c1ccccc1OCC(O)CN(Cc1ccccc1)Cc1ccccc1 (stereo unspecified),-7.2%
9,COC(=O)CN(c1ccc(C)cc1)S(=O)(=O)c1ccccc1,9.4%
10,c1ccc(C2=NN3COc4ccccc4C3C2)cc1 (stereo unspecified),-1.1%
11,COc1ccc(/C=C/C(=O)c2cccc([N+](=O)[O-])c2)c(OC)c1,1%
12,O=C(Nc1ccc(SC(F)F)cc1)/C(=C/c1ccc(Cl)cc1)NC(=O)c1ccccc1,10.7%
13,O=C(COc1ccc(I)cc1)N/N=C/c1ccc(-c2ccc([N+](=O)[O-])cc2)o1,59%
14,CCC(=O)c1ccc(N2CCOCC2)c(F)c1,-18.9%
15,CCC(C(=O)N1CCN(c2ccc(F)cc2)CC1)c1ccccc1 (stereo unspecified),-7.7%
16,C=CCN1C(=O)/C(=C\c2cc(Br)cc(Cl)c2O)C(=O)NC1=S,7.9%
17,COc1ccc(CC(=O)NNC(=O)COc2ccc(Cl)cc2)cc1OC,-6.4%
18,Cc1ccc(S(=O)(=O)N2CCSC2c2ccc(Br)cc2)cc1[N+](=O)[O-] (stereo unspecified),10.6%
19,COc1ccc(N2C(=O)c3ccc(OCCOc4ccc5c(c4)C(=O)N(c4ccc(OC)cc4)C5=O)cc3C2=O)cc1,7.3%
20,Cc1cccc(C)c1NC(=O)CSc1nnc(-c2ccco2)n1-c1ccccc1,12%
21,C/C(=N\NC(=O)CNC(=O)C(c1ccccc1)c1ccccc1)c1ccccc1,23.1%
22,COc1cc(NC(=O)c2cccnc2)c(OC)cc1Br,-7.8%
23,COc1cc(NC(=O)c2ccc(Cl)cc2Cl)ccc1NC(=O)c1cc2ccccc2o1,-2.6%

row,SMILES,displacement
1,CCCC1=C(C(=O)OCC)C(c2ccc(CC)cc2)NC(=O)N1 (stereo unspecified),-8.5%
2,COc1ccc(NC(=O)c2cc3ccccc3o2)cc1OC,-0.8%
3,O=c1[nH]c(/C=C/c2ccc(N3CCOCC3)cc2)nc(O)c1[N+](=O)[O-],-23.7%
4,CC(=O)N(C1=C(N2CCCCC2)C(=O)c2ccccc2C1=O)c1ccc(C)cc1,11.1%
5,Cc1cc(C)nc(/N=C(/N)Nc2cccc([N+](=O)[O-])c2)n1,-2.1%
6,CCCCOc1ccc(NC(=O)C2CC=CCC2C(=O)O)cc1 (stereo unspecified),3.2%
7,Cc1ccc(S(=O)(=O)N2CCN(C(=O)c3cccs3)CC2)cc1,-5%
8,COc1cccc2cc(C(=O)Nn3cnnc3)c(=O)oc12,-13%
9,Cc1c(C)c2ccc(OCC(=O)N(C)C)cc2oc1=O,7.3%
10,O=C(c1ccccc1)c1cc2c(cc1Cl)OCCO2,5.6%
11,CCn1ccnc1C(O)c1cc(OC)ccc1OC (stereo unspecified),3.9%
12,COc1cc(NC(=O)CCCOc2ccc(Cl)cc2Cl)c(OC)cc1Cl,0.2%
13,O=C(c1ccccc1Br)N1CCN(c2ccc([N+](=O)[O-])cc2Cl)CC1,11.1%
14,Cc1cc(C)cc(NC(=O)CN2C(=O)c3ccccc3C2=O)c1,-2.1%
15,CCOC(=O)c1c(-c2ccc(Cl)cc2)csc1NC(=O)COc1ccc(OC)cc1,9.3%
16,O=C(N/N=C/c1cccnc1)c1cc(-c2ccc3ccccc3c2)n[nH]1,-3.8%
17,CCOc1ccc(Br)cc1/C=C(\C#N)c1nc2ccc(C)cc2[nH]1,72.9%
18,Cc1ccc(-c2csc(/C(C#N)=C\c3ccc(C)s3)n2)cc1,-2.9%
19,Nc1ccc(C(c2ccccc2)c2ccc(N)cc2)cc1,-2.1%
